Article PMC6451091
The list shows a part of the results. The protein was read in a cell extract, so binding may be indirect.

Each sequence was assayed against T1, FLI1 (endogenous, THP-1 nuclear extract) (UniProt Q01543) (assay: nuclear extract protein-binding microarray (nextPBM)). Settings: 20 mM HEPES pH 7.9, 100 mM NaCl, 1 mM DTT, 0.2 mg/mL BSA, 0.02% Triton X-100, 2% milk, 0.4 mg/mL salmon testes DNA; 1 h; temperature not stated; high values mean tight binding; double strand, one strand shown; sequences stand for … in GCCTAGCAC…GTGCTAGGTCTTGATTCGCTTGACGCTGCTG.
T1 sequence: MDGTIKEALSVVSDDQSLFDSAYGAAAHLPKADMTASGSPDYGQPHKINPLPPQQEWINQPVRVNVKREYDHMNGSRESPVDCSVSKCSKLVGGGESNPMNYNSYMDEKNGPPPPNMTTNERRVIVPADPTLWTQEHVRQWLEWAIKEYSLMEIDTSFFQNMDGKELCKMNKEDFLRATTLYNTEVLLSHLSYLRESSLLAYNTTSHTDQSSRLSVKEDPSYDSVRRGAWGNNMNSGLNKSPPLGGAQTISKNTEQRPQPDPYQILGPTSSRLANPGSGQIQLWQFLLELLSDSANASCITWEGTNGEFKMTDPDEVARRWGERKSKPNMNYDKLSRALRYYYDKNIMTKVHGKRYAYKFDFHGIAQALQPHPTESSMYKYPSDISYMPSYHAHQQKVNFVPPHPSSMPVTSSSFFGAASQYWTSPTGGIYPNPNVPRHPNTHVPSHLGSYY

Sequence | binding signal
AAAAAAAGGAAGTGAGAGCT | 3.18 z-score
GATAAGAGGAAGTCCTTTGT | 3.02 z-score
GAAGAGAGGAAGTGAAATTG | 3.11 z-score
AGAAAAAGGAAGTGACATAC | 3.25 z-score
CCAAGGGGGAAGTGAATGTT | 2.34 z-score
CAAAAAGGGAAGTGGGGAGA | 2.49 z-score
AAAAGGAGGAAGTGATGATG | 3.3 z-score
AGAAATGGGAAGTGCCATCC | 2.35 z-score
TGAATGAGGAACTGTCAAAC | 1.2 z-score
AAAAAGGGGAAGTCAGGGAG | 3.74 z-score
AAAATCAGGAAGTGTTTGAG | 3.18 z-score
GAAAAGAGGAAGTGTGAGAC | 3.66 z-score
CAGATGAGGAAGTGAAGAAC | 2.6 z-score
GAAACCAGGAAGTCCCATAG | 2.56 z-score
GGAGGAGGGAAGTGGAAAGA | 1.81 z-score
GGAAAGGGGAAGTCAGAAAG | 2.86 z-score
GAGGAGAGGAAGTGGGGGAG | 2.75 z-score

Sequence | binding signal
GAATTGAGGAAGTCCTCCCA | 2.88 z-score
GAAAACAGGAAGTGCCATAG | 5.12 z-score
GCAAACAGGAAGTCCCATAG | 4.86 z-score
GGGATGAGGAAGTCTGAAAT | 2.38 z-score
GGAGGAGGGAAGTGCTGAGT | 1.35 z-score
TCAAACAGGAAGTGTAAATA | 5.16 z-score
CGAAAGGGGAAGTGCAAAAC | 2.91 z-score
TTTAACAGGAAGTGAAACCA | 5.27 z-score
TGAAAGAGGAAGGGCAACCA | 1.17 z-score
GAAATCAGGAAGTGTGAATC | 3.29 z-score
CCCAAAAGGAAGTGAAGTTG | 2.78 z-score
TGTAACAGGAAGTGGAATAA | 5.09 z-score
AGGAAAAGGAAGTCTCCCCA | 2.66 z-score
AAAATGAGGAAGTGAGATAT | 4.26 z-score
GAAAAGAGGAACTGGGTTTA | 2.64 z-score
TGAAAGGGGAAGTGGATACT | 3.31 z-score
